Values marked as one replicate rest on one cluster of the flow cell; about a third of the high ones do not repeat.
These sequences were tested on ATP (assay: switch fluorescence ratio, 500 uM ATP over buffer (Cy3 cluster intensity, sum of 5 cycles each) (fold (ratio)); higher = stronger signal-on switching upon ATP binding; sequences stand for … in TCGTCGGCAGCGTCAGATGTGTATAAGAGACAGTTTTTTTTTTTTTTTTTTTTTTTTT…TC). Conditions: aptamer strand: ATP DNA aptamer (quencher-CACCTGGGGGAGTATTGCGGAGGAAGG + anchor), 100 nM annealed; ATP concentration: 500 uM; one replicate.
In short: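 The quencher-labelled ATP aptamer, at 100 nM, was annealed to Cy3-labelled switching-strand clusters on a modified Illumina MiSeq flow-cell. The clusters were imaged in selection buffer, then after 15 min with 500 uM ATP at 22 °C, and this buffer/ATP cycle ran five times with NaOH stripping and re-annealing between runs. Per-cluster fluorescence ratios, summed target-cycle over summed buffer-cycle Cy3 intensity, were averaged per switch-domain sequence. Clusters outside 100-1000 RFU were excluded.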
Sequence AACGCTGGAT has a switch fluorescence ratio of 1.04.
In the case of AACGGAAAAG, the switch fluorescence ratio is reported as 1.76.
Sequence AACGGAACTC has a switch fluorescence ratio of 1.16.
For AACGGATGCC, the switch fluorescence ratio was 1.03.
AACGGATGTT gave a switch fluorescence ratio of 0.999.
Work on AACGGCAAAC yielded a switch fluorescence ratio of 3.7.
AACGGCAATT was tested, and the switch fluorescence ratio was 1.33.
Sequence AACGGCATTA has a switch fluorescence ratio of 1.1.
Sequence AACGGCCAGT has a switch fluorescence ratio of 1.04.
In the case of AACGGCCGAC, the switch fluorescence ratio is reported as 1.06.
In the case of AACGGCTGCC, the switch fluorescence ratio is reported as 0.974.
AACGGTATG was tested, and the switch fluorescence ratio was 1.07.
With AACGGTGGAC the switch fluorescence ratio was 1.01.
Work on AACGTAAG yielded a switch fluorescence ratio of 1.05.
For AACGTACCGC, the switch fluorescence ratio was 1.71.
AACGTCGGGT gave a switch fluorescence ratio of 1.05.
Work on AACGTCTCC yielded a switch fluorescence ratio of 1.11.
AACGTGCACA showed a switch fluorescence ratio of 0.99.
AACGTGCTGC was tested, and the switch fluorescence ratio was 1.06.
For AACGTGTTAT, the switch fluorescence ratio was 0.954.
Work on AACGTTGATG yielded a switch fluorescence ratio of 1.01.
For AACGTTGCT, the switch fluorescence ratio was 0.973.
AACGTTGTG was tested, and the switch fluorescence ratio was 1.
Sequence AACTAAAGCC has a switch fluorescence ratio of 1.02.
Work on AACTAAGTCA yielded a switch fluorescence ratio of 0.959.
With AACTACGAGA the switch fluorescence ratio was 1.12.
AACTCCCTG showed a switch fluorescence ratio of 1.15.
AACTCCGGGG was tested, and the switch fluorescence ratio was 0.995.
AACTCGATTA showed a switch fluorescence ratio of 0.945.
Sequence AACTCTTTC has a switch fluorescence ratio of 1.14.
With AACTGCATGG the switch fluorescence ratio was 1.06.
With AACTGCGAGG the switch fluorescence ratio was 1.
In the case of AACTGGAGCT, the switch fluorescence ratio is reported as 1.11.
AACTGGCCTC showed a switch fluorescence ratio of 1.1.
AACTGGGTGT was tested, and the switch fluorescence ratio was 1.07.
AACTGTCAGG showed a switch fluorescence ratio of 0.962.
AACTGTGAAC gave a switch fluorescence ratio of 1.01.
In the case of AACTTAAGGA, the switch fluorescence ratio is reported as 1.
AACTTAAGGC showed a switch fluorescence ratio of 0.965.
In the case of AACTTCCCGC, the switch fluorescence ratio is reported as 3.06.
With AACTTGCACT the switch fluorescence ratio was 1.1.
AACTTGCAT was tested, and the switch fluorescence ratio was 1.06.
For AACTTGGACA, the switch fluorescence ratio was 0.958.
AACTTGGATC showed a switch fluorescence ratio of 1.03.
Work on AACTTTCACG yielded a switch fluorescence ratio of 1.2.
AACTTTCGTA gave a switch fluorescence ratio of 0.994.
AAGAAAATAT was tested, and the switch fluorescence ratio was 1.01.
For AAGAAAGAAA, the switch fluorescence ratio was 0.981.
AAGAAGACCG gave a switch fluorescence ratio of 0.97.
In the case of AAGAATACGT, the switch fluorescence ratio is reported as 1.25.
With AAGAATATGG the switch fluorescence ratio was 0.962.
For AAGAATCACA, the switch fluorescence ratio was 0.994.
Sequence AAGAATCCAG has a switch fluorescence ratio of 1.
AAGAATGGCT gave a switch fluorescence ratio of 1.02.
Work on AAGACAAATG yielded a switch fluorescence ratio of 0.953.
AAGACAGCCG was tested, and the switch fluorescence ratio was 0.981.
In the case of AAGACCGACG, the switch fluorescence ratio is reported as 1.19.
AAGACGGTAG showed a switch fluorescence ratio of 1.01.
In the case of AAGACTGGTG, the switch fluorescence ratio is reported as 0.97.
In the case of AAGAGAAGGC, the switch fluorescence ratio is reported as 0.994.
AAGAGAAGGT showed a switch fluorescence ratio of 0.947.
For AAGAGACAGC, the switch fluorescence ratio was 1.09.
With AAGAGACTAC the switch fluorescence ratio was 1.05.
Work on AAGAGAGTAG yielded a switch fluorescence ratio of 0.983.
For AAGAGCGCAG, the switch fluorescence ratio was 1.03.
AAGAGGATCT gave a switch fluorescence ratio of 1.01.
In the case of AAGAGTCTCG, the switch fluorescence ratio is reported as 0.96.
AAGAGTGAAA was tested, and the switch fluorescence ratio was 0.971.
Work on AAGAGTTAC yielded a switch fluorescence ratio of 1.01.
For AAGATAAGAG, the switch fluorescence ratio was 0.969.
With AAGATAGATC the switch fluorescence ratio was 1.03.
AAGATATAGT gave a switch fluorescence ratio of 1.01.
In the case of AAGATCGATG, the switch fluorescence ratio is reported as 0.978.
AAGATGCAGG gave a switch fluorescence ratio of 0.992.
For AAGATGGGCA, the switch fluorescence ratio was 1.15.
Work on AAGATGGTAA yielded a switch fluorescence ratio of 1.05.
Work on AAGATTCGGC yielded a switch fluorescence ratio of 0.987.
Sequence AAGATTTCAG has a switch fluorescence ratio of 1.03.
Sequence AAGATTTCG has a switch fluorescence ratio of 1.02.
AAGCAAAAAC gave a switch fluorescence ratio of 1.36.
AAGCAAAGGG was tested, and the switch fluorescence ratio was 1.01.
AAGCACGTGC gave a switch fluorescence ratio of 0.908.
For AAGCAGGGCC, the switch fluorescence ratio was 1.02.
Work on AAGCATAATT yielded a switch fluorescence ratio of 1.31.
For AAGCATGGGG, the switch fluorescence ratio was 1.01.
AAGCCACTTG gave a switch fluorescence ratio of 1.05.
AAGCCAGGGA showed a switch fluorescence ratio of 1.02.
With AAGCCGAGCG the switch fluorescence ratio was 1.06.
Sequence AAGCCGGACC has a switch fluorescence ratio of 1.05.
AAGCCGGATT was tested, and the switch fluorescence ratio was 0.989.
Sequence AAGCCGGTTT has a switch fluorescence ratio of 1.01.
AAGCCTATTA gave a switch fluorescence ratio of 0.954.
For AAGCCTGCGG, the switch fluorescence ratio was 0.976.
For AAGCCTTCAT, the switch fluorescence ratio was 1.25.
In the case of AAGCGAAGAG, the switch fluorescence ratio is reported as 1.
Sequence AAGCGAATAA has a switch fluorescence ratio of 1.29.
AAGCGCATAG was tested, and the switch fluorescence ratio was 1.17.
AAGCGGAGTG was tested, and the switch fluorescence ratio was 1.16.
Sequence AAGCGGGCGG has a switch fluorescence ratio of 0.99.
AAGCGTACGA gave a switch fluorescence ratio of 1.02.
For AAGCGTGTAC, the switch fluorescence ratio was 1.05.
With AAGCTACACA the switch fluorescence ratio was 1.05.
Work on AAGCTAGGGC yielded a switch fluorescence ratio of 0.992.
For AAGCTCAGGA, the switch fluorescence ratio was 0.968.
With AAGCTGCCAG the switch fluorescence ratio was 1.01.
In the case of AAGCTGTGT, the switch fluorescence ratio is reported as 0.993.
With AAGCTTAAAA the switch fluorescence ratio was 0.965.
Work on AAGCTTGAAC yielded a switch fluorescence ratio of 1.06.
With AAGGAACTTG the switch fluorescence ratio was 1.04.
AAGGAAGCAG gave a switch fluorescence ratio of 1.
For AAGGACACGT, the switch fluorescence ratio was 1.02.
Work on AAGGACCCCA yielded a switch fluorescence ratio of 1.07.
With AAGGACCTCG the switch fluorescence ratio was 1.05.
With AAGGAGAGTA the switch fluorescence ratio was 0.989.
Sequence AAGGAGTCTG has a switch fluorescence ratio of 0.967.
With AAGGATTTCA the switch fluorescence ratio was 0.993.
With AAGGATTTGG the switch fluorescence ratio was 0.987.
Sequence AAGGCAAGGA has a switch fluorescence ratio of 1.06.
In the case of AAGGCACGGT, the switch fluorescence ratio is reported as 0.991.
AAGGCCAGGA was tested, and the switch fluorescence ratio was 1.01.
Work on AAGGCCATAA yielded a switch fluorescence ratio of 0.952.
With AAGGCGATGA the switch fluorescence ratio was 0.976.
Work on AAGGCGTCGT yielded a switch fluorescence ratio of 0.953.
In the case of AAGGCTCGTG, the switch fluorescence ratio is reported as 0.996.
AAGGCTGGAA gave a switch fluorescence ratio of 1.01.
With AAGGGAAC the switch fluorescence ratio was 0.97.
AAGGGAACTT was tested, and the switch fluorescence ratio was 1.02.
AAGGGAATTC showed a switch fluorescence ratio of 1.03.
For AAGGGCCGTT, the switch fluorescence ratio was 1.04.
AAGGGGCACG showed a switch fluorescence ratio of 0.974.
For AAGGGGCGTC, the switch fluorescence ratio was 1.04.
AAGGGTACGG gave a switch fluorescence ratio of 1.04.
AAGGGTACTG gave a switch fluorescence ratio of 0.994.
AAGGGTATAC was tested, and the switch fluorescence ratio was 1.03.
With AAGGGTGAT the switch fluorescence ratio was 0.968.
Sequence AAGGGTGTCG has a switch fluorescence ratio of 1.
AAGGTACA gave a switch fluorescence ratio of 1.08.
Sequence AAGGTATAGT has a switch fluorescence ratio of 1.01.
AAGGTCATAC was tested, and the switch fluorescence ratio was 1.1.
In the case of AAGGTCTTGT, the switch fluorescence ratio is reported as 1.01.
With AAGGTGCATG the switch fluorescence ratio was 1.07.
With AAGGTGCCAG the switch fluorescence ratio was 1.13.
Sequence AAGGTTACC has a switch fluorescence ratio of 1.05.
In the case of AAGGTTAGGC, the switch fluorescence ratio is reported as 1.02.
With AAGGTTATGG the switch fluorescence ratio was 1.03.
With AAGGTTGCT the switch fluorescence ratio was 1.03.
For AAGGTTGGCC, the switch fluorescence ratio was 0.972.
AAGGTTTAAT gave a switch fluorescence ratio of 1.01.
Sequence AAGGTTTGCT has a switch fluorescence ratio of 0.97.
For AAGTACATCC, the switch fluorescence ratio was 1.21.
In the case of AAGTAGCGCC, the switch fluorescence ratio is reported as 0.985.
With AAGTAGGAGA the switch fluorescence ratio was 1.02.
With AAGTAGGATA the switch fluorescence ratio was 1.01.
AAGTCAGTAT was tested, and the switch fluorescence ratio was 0.968.
Work on AAGTCCTACG yielded a switch fluorescence ratio of 1.08.
In the case of AAGTCCTAGC, the switch fluorescence ratio is reported as 1.01.
With AAGTCCTGAG the switch fluorescence ratio was 1.05.
In the case of AAGTCTGCTG, the switch fluorescence ratio is reported as 1.07.
AAGTCTTTTG showed a switch fluorescence ratio of 1.02.
Sequence AAGTGAGTTG has a switch fluorescence ratio of 0.998.
With AAGTGATA the switch fluorescence ratio was 1.01.
Sequence AAGTGCGGCA has a switch fluorescence ratio of 1.06.
For AAGTGGCCCG, the switch fluorescence ratio was 1.07.
AAGTGGGGAC was tested, and the switch fluorescence ratio was 0.992.
With AAGTGGGTAG the switch fluorescence ratio was 0.99.
In the case of AAGTGTAGGG, the switch fluorescence ratio is reported as 1.04.
AAGTGTATG showed a switch fluorescence ratio of 0.964.
AAGTGTGAAA was tested, and the switch fluorescence ratio was 0.988.
With AAGTGTGACC the switch fluorescence ratio was 0.965.
In the case of AAGTGTTAGG, the switch fluorescence ratio is reported as 1.22.
Work on AAGTGTTTCT yielded a switch fluorescence ratio of 1.02.
For AAGTTAAAGT, the switch fluorescence ratio was 1.03.
AAGTTAATTA showed a switch fluorescence ratio of 0.997.
In the case of AAGTTACTG, the switch fluorescence ratio is reported as 1.06.
Work on AAGTTAGCGT yielded a switch fluorescence ratio of 0.964.
For AAGTTAGGGC, the switch fluorescence ratio was 1.06.
AAGTTATGA was tested, and the switch fluorescence ratio was 0.994.
AAGTTCAAAT was tested, and the switch fluorescence ratio was 1.04.
For AAGTTCACC, the switch fluorescence ratio was 0.964.
AAGTTCACTT gave a switch fluorescence ratio of 1.03.
Work on AAGTTCAGGT yielded a switch fluorescence ratio of 1.04.
For AAGTTCCTTT, the switch fluorescence ratio was 1.
Work on AAGTTGCATG yielded a switch fluorescence ratio of 0.974.
Work on AAGTTGGCTG yielded a switch fluorescence ratio of 1.01.
AAGTTGGTAG showed a switch fluorescence ratio of 0.968.
In the case of AAGTTGGTG, the switch fluorescence ratio is reported as 0.962.
Sequence AAGTTGTTAG has a switch fluorescence ratio of 0.987.
Work on AAGTTGTTGC yielded a switch fluorescence ratio of 0.964.
In the case of AAGTTTCGAC, the switch fluorescence ratio is reported as 0.998.
AAGTTTTGAA was tested, and the switch fluorescence ratio was 0.992.
AATAAAATAT showed a switch fluorescence ratio of 1.04.
AATAAACGGC showed a switch fluorescence ratio of 1.05.
AATAAAGAGG was tested, and the switch fluorescence ratio was 1.01.
With AATAAAGTGT the switch fluorescence ratio was 0.946.
AATAAGAAGA gave a switch fluorescence ratio of 0.993.
In the case of AATAAGCCAT, the switch fluorescence ratio is reported as 0.999.
Sequence AATAAGCGTC has a switch fluorescence ratio of 0.975.
For AATAATATAC, the switch fluorescence ratio was 1.11.
For AATAATCGGA, the switch fluorescence ratio was 1.01.
AATAATCTCT gave a switch fluorescence ratio of 0.967.
AATAATGGAT gave a switch fluorescence ratio of 1.02.

— the supplement of paper PMC10126150
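Further: ATP exposure 15 min at 22 °C before imaging.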
